Results: article PMC4336329 (PLoS ONE, 2015)
About 14,000 (4.5%) of roughly 310,000 compounds showed an effect of 50% or more. The effect is printed as a negative number. Some of the results follow.

Biological target: human ether-à-go-go-related gene (hERG) potassium channel (human, UniProt Q12809)
Experiment: primary screen, population patch clamp on CHO cells stably expressing hERG
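Further: peak tail current of the secondary pulse compared with the same well before compound.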

human ether-à-go-go-related gene (hERG) potassium channel, sequence (Q12809 whole entry, looked up): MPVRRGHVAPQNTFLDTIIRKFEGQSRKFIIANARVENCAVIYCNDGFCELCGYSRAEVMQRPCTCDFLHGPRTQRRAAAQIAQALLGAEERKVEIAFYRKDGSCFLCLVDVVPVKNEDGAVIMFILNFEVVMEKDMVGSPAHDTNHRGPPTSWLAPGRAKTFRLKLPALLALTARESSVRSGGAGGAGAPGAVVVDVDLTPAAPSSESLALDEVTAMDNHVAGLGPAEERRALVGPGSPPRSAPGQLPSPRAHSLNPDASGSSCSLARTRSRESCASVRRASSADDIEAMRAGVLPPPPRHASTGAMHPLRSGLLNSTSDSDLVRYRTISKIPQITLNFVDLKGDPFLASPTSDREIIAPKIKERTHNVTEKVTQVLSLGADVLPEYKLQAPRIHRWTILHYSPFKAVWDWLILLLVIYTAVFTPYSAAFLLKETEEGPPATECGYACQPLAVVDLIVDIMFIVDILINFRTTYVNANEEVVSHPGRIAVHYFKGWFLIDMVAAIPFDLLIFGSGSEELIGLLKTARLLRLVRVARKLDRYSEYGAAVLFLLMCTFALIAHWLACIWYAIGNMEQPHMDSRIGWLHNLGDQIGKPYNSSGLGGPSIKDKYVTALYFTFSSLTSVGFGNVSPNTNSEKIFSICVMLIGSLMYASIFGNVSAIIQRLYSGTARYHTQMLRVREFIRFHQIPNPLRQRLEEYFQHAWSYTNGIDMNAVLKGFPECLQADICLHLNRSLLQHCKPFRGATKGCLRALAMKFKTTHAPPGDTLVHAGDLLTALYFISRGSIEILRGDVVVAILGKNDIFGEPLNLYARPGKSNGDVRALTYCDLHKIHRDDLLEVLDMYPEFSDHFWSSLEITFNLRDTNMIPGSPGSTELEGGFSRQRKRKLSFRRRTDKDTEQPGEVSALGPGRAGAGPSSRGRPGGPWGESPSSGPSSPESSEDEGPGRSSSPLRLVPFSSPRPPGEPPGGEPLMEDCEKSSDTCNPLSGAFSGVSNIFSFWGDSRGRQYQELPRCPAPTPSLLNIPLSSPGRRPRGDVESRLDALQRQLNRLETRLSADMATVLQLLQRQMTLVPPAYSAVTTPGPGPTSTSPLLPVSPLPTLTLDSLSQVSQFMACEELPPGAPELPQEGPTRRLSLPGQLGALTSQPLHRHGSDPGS

SMILES	hERG current change (%, negative = inhibition) at 10uM [%]
COc1ccc(C2C(C#N)=C(N)Oc3cc(C)n(Cc4ccncc4)c(=O)c32)cc1 (stereo not drawn)	-34.3
CCOc1ccc(/C=N/NC(=O)Cn2ccnc2C)cc1	-6.24
Cc1cc(C)n(-c2ccc(Oc3ccccc3)c(S(=O)(=O)O)c2)n1	20.4
CCCc1ccc2oc(C(=O)N(C)Cc3nccs3)c(C)c2c1	-48.3
O=C(Nc1ccccc1Cl)c1cc2ccccc2o/c1=N\O	0.926
COc1cccc2sc(Nc3nc(-c4cc5ccccc5oc4=O)cs3)nc12	13.7
COc1cc(OC)cc(C(=O)Nc2ccn(C)n2)c1	22.3
O=c1[nH]cccc1-c1nc2ccccc2n1Cc1ccc(F)cc1	-22.5
CCC1(C)NC(=O)N(CC(=O)NCC(=O)Nc2c(C)cc(C)cc2C)C1=O (stereo not drawn)	14.2
Cc1ccc(S(=O)(=O)N2CCN(C(=O)NCc3ccc(F)cc3)CC2)c(C)c1	5.98
CC(=O)Nc1nc(C(F)(F)F)cs1	7.96
COc1ccc(-c2c(-c3ccc4c(c3)OCO4)noc2C)cn1	-12.6
Cc1ccccc1OCC(=O)NC(=S)Nc1ccccc1N1CCN(S(C)(=O)=O)CC1	-4.59
CCOC(=O)C1=C(CC)Nc2ccccc2N=C1NC(=O)Nc1ccccc1OC	13.8
Cn1cc(CN2CCCC(CNC(=O)c3ccc4c(c3)OCO4)C2)c2ccccc21 (stereo not drawn)	-43.6
COc1ccc(S(=O)(=O)N(C)CC(=O)NC2CCCC2)cc1Cl	4.03
Br.O=C(c1ccc(Br)cc1)c1sc(N2CCOCC2)nc1-c1ccccc1	-1.44
Nc1c(C(=O)N2CCCCC2)sc2nc3c(cc12)CCCC3	2.72
CCn1nc(C)cc1C(=O)NC1CCCc2c1cnn2-c1ccc(C)c(C)c1 (stereo not drawn)	-8.78
CCCC12CN(C(=O)c3ccc(OC)cc3)CC(C)(CN(C(=O)c3ccc(OC)cc3)C1)C2=O	-2.79
Cc1nc2ccccc2c(=O)n1/N=C/c1ccc(OC(F)F)cc1	8.31
CC(C)c1ccc(C2NC(C(=O)O)CS2)cc1 (stereo not drawn)	-6.38

SMILES	hERG current change (%, negative = inhibition) at 10uM [%]
CC(=O)c1cccc(NC(=S)Nc2ccc(F)cc2)c1	0.536
CC(C)Cc1cc(C(=O)N2CCC(N3CCC(C(=O)N4CCCC4)CC3)CC2)n[nH]1	6.79
CC(C)CCn1nnnc1C(c1ccccc1F)N1CCC(C(N)=O)CC1 (stereo not drawn)	1.41
CCOc1ccc(NC(=O)NCc2cccnc2)cc1	22.7
CCOc1ccc(OCCSc2nc(N)cc(=O)[nH]2)cc1	1.58
CC(C)CCN(C(=O)CCCSc1nc2ccccc2[nH]1)c1c(N)n(Cc2ccccc2)c(=O)[nH]c1=O	-18.7
Cc1nc2sc(C(c3ccc(Br)cc3)N3CC(C)OC(C)C3)c(O)n2n1 (stereo not drawn)	-0.694
CCOC(=O)/C(C#N)=C/c1c(N2CCCCCC2)nc2ccccn2c1=O	-38.4
O=C(N/C(=C\c1ccc(Br)cc1)C(=O)N1CCCC1)c1ccccc1F	-71.8
CSc1ccc(S(=O)(=O)NCC(=O)OCC(=O)N2CCC(C)CC2)cc1[N+](=O)[O-]	-38.2
Cc1cc(C(=O)CSc2nc3ccccc3c(=O)n2C)c(C)n1Cc1ccc2c(c1)OCO2	12.9
COc1ccccc1C(=O)Nc1nnc(S(=O)(=O)N2CCCCCC2)s1	3.54
COCCn1c(CN2CCN(C(=O)c3ccco3)CC2)nc2c1c(=O)n(C)c(=O)n2C	-9.04
O=C1NC(=O)/C(=C/c2ccc(-c3cccc([N+](=O)[O-])c3)o2)S1	18.4
c1ccc2c(c1)CC/C2=N/Nc1nc2ccccc2[nH]1	9.49
CCOc1ccc(S(=O)(=O)N2CCCC(C(=O)NCCN3CCOCC3)C2)cc1Cl (stereo not drawn)	-5.09
COc1ccc(N2CCN(C(=O)C3Cc4ccccc4CN3C(=O)c3ccco3)CC2)cc1 (stereo not drawn)	-39.8
CN(C)C(=O)c1ccc2c(c1)C1C3CCC(C3)C1C(c1ccccc1)N2 (stereo not drawn)	-13.5
O=C(CSc1nc(N2CCOCC2)nc(N2CCOCC2)n1)Nc1ccccc1F	19.2
Cc1cc(C)cc(OCC(=O)OCC(=O)Nc2c(C)n(C)n(-c3ccccc3)c2=O)c1	9.07
c1cc(SSc2ccncc2)ccn1	26.7
O=S(=O)(NC1CCCCC1NCc1ccco1)c1ccccc1 (stereo not drawn)	1.64

SMILES	hERG current change (%, negative = inhibition) at 10uM [%]
CCOC(=O)N1CCN(S(=O)(=O)c2ccc(F)c(C(=O)Nc3ccc(C(C)C)cc3)c2)CC1	-27.3
CC1CN(S(=O)(=O)c2ccc(CN3C(=O)c4cccnc4C3=O)cc2)c2ccccc2O1 (stereo not drawn)	6.4
Cc1occc1-c1nnc(SCC(=O)NC2CCCC2)n1-c1ccccc1	-74.8
CC(=O)NNC(=O)c1csc(Cc2c(Cl)sc3ccc(Cl)cc23)n1	-19.6
CN(C)S(=O)(=O)c1ccc(C(=O)Nc2ccc(Cl)cc2)cc1	-2.2
Cc1cccc(OCC(=O)OCC(=O)N2CCN(C(=O)c3ccco3)CC2)c1C	-31.8
CC(=O)Nc1ccc(C(=O)N2CCc3cc4c(cc3C2C)OCCCO4)cc1 (stereo not drawn)	3.83
COc1cccc(C(=O)NCC(=O)N/N=C/c2c(C)[nH]c3ccccc23)c1	13.2
CCNc1nc(NCC)nc(SCCOc2ccc(C)cc2)n1	-40.6
CCCS(=O)(=O)N1CCN(CCCc2ccccc2)CC1.O=C(O)C(=O)O	4.11
COc1ccccc1CNC(=O)c1ccoc1C	0.921
COc1ccccc1-n1c(SCC(=O)Nc2ccc(C)cc2)nc(O)cc1=O	2.38
CCOC(=O)c1cnc2ccc(OCC)cc2c1NCc1cccnc1.Cl	-77.4
CC(=O)Nc1ccc(NC(=O)CSc2nccn2Cc2ccco2)cc1	-36.8
O=C(O)c1ccccc1C(=O)OCc1c(-c2ccccc2)ncc2ccccc12	10.3
COC(=O)c1ccc(NC(=O)NC(=O)Oc2ccccc2)cc1	-3.79
CCN(CC)S(=O)(=O)c1ccc(C(=O)NCCc2ccccn2)cc1	10.8
COc1cc(OC)c(OC)cc1CN(C)CCc1ccccn1.O=C(O)C(=O)O	-11.2
COc1cccc(CN2CCNC(=O)C2CC(=O)NCCc2cccc(C)n2)c1OC (stereo not drawn)	5.74
O=c1ccc2cc(S(=O)(=O)Nc3ccc(Br)cc3)ccc2o1	5.32
CCCCn1c(N)c(N(CC(C)C)C(=O)C2CCN(S(=O)(=O)c3ccc(OCC)cc3)CC2)c(=O)[nH]c1=O	8.05
O=C(OCC(=O)N1CCC(Cc2ccccc2)CC1)c1ccc(CO)cc1	-17

SMILES	hERG current change (%, negative = inhibition) at 10uM [%]
O=S(=O)([O-])C(c1ccccc1)[n+]1ccccc1 (stereo not drawn)	5.87
CC(=O)CC(c1ccccc1)S(=O)(=O)c1ccc([N+](=O)[O-])cc1 (stereo not drawn)	12.8
O=C1COc2ccc(C(=O)CCl)cc2N1	-18.9
CCOc1cc(C(=S)N2CCCCC2)ccc1OS(=O)(=O)c1ccc(Br)cc1	4.5
Cc1ccc(C(=O)Nc2cccc(C(F)(F)F)c2)cc1Nc1cncnc1.O=C(O)C(F)(F)F	-74.3
N#Cc1ccc(CN2CCN(C(=O)c3cc(C4CC4)nn3-c3ccccc3)CC2)cc1	-57.2
COCCNC(=S)Nc1ccc2[nH]c(=O)[nH]c2c1	-2.76
Cc1ccccc1-c1nc2ccccc2[nH]1	-9.77
Cc1c(CC(=O)N2CCN(C(=O)C3COc4ccccc4O3)CC2)c(=O)oc2cc(O)ccc12 (stereo not drawn)	-44.7
CCN1CCN(C(=O)c2ccccc2N(Cc2ccccc2)S(=O)(=O)c2ccc(C)cc2)CC1	-53.2
Cn1nnnc1SCC(=O)Nc1nc(-c2ccccc2)c(-c2ccccc2)o1	2.83
COC(=O)C(C)N(C#N)c1nc(C)cc(C)n1 (stereo not drawn)	8.78
CCN1C(=O)C(=O)N(CC(=O)NC(C)CCc2ccccc2)C1=O (stereo not drawn)	-8.47
CCCC(C(=O)Nc1ccc(S(=O)(=O)N2CCCC2)cc1)c1ccccc1 (stereo not drawn)	3.52
O=C(CSc1nc(=O)n(Cc2ccccn2)c2c1CCC2)Nc1ccc(F)cc1F	-23.7
O=C(Nc1ccc(N2CCOCC2)cc1)Nc1cnsn1	-0.748
COCCN1Cc2cccc(C(=O)Nc3cccc(C)c3C)c2C1=O	-16.3
O=C(NN1C(=O)c2ccccc2C1=O)C1CCCCC1	-3.21
Cc1ccc(NC(=O)CSc2nccn2Cc2ccco2)c(C)c1	8.72
Cc1ccc(S(=O)(=O)Nc2c(O)c3ccccc3oc2=O)cc1C	23.9
COc1ccc2c(c1OC)C(=O)N1N=C(c3ccccc3)CC21 (stereo not drawn)	0.84
